Results: the supplement of paper PMC4967469
A lower IC50 marks a more sensitive line; a fit beyond the top or the lowest dose is shown as a bound at that dose. For AUC the same curve is integrated over the 256-fold range of doses and scaled to a fraction: 1 means no effect, lower means more sensitive. An inferred top dose was calculated from the reported fits.

Compound: CCCCCCCCCCCC1=C(O)C(=O)C=C(O)C1=O [Embelin]
Experiment: Viability of human cancer cell lines after 72 h of drug (GDSC screen)
Details: top dose 32 µM; top dose inferred
Description: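 Human cancer cell lines in 384-well plates, medium with 10% serum, drug for 72 h over a 256-fold dose range (nine 2-fold or five 4-fold steps up to the top dose). Adherent lines were fixed and stained with the nucleic acid dye Syto60, suspension lines read with resazurin; signal relative to control wells, capped at 0 and 100%. One two-parameter sigmoid per drug and line, fitted in a mixed model over all curves with the slope shared within a line.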

NCI-H2172 (non-small cell lung carcinoma, adherent)
AUC: 0.721 | IC50: 10.8 µM

TE-12 (oesophagus, suspension)
AUC: 0.796 | IC50: 18.8 µM

OCUB-M (breast, adherent)
AUC: 0.671 | IC50: 5.57 µM

MDA-MB-157 (breast, adherent)
AUC: 0.72 | IC50: 8.54 µM

NB1 (neuroblastoma, semi-adherent)
AUC: 0.847 | IC50: 27.4 µM

CW-2 (large intestine, adherent)
AUC: 0.988 | IC50: > 32 µM

NCI-H3122 (lung adenocarcinoma, adherent)
AUC: 0.781 | IC50: 13.7 µM

NCI-H650 (lung adenocarcinoma, adherent)
AUC: 0.784 | IC50: 15 µM

PSN1 (pancreas, adherent)
AUC: 0.722 | IC50: 7.51 µM

NCI-H2081 (small cell lung carcinoma, suspension)
AUC: 0.941 | IC50: > 32 µM

OCI-AML2 (acute myeloid leukaemia, suspension)
AUC: 0.684 | IC50: 5.64 µM

LC4-1 (lymphoblastic leukaemia, suspension)
AUC: 0.917 | IC50: > 32 µM

MDA-MB-436 (breast, adherent)
AUC: 0.699 | IC50: 8.44 µM

BICR31 (head and neck, adherent)
AUC: 0.788 | IC50: 14.2 µM

NCI-SNU-1 (stomach, suspension)
AUC: 0.896 | IC50: > 32 µM

CAL-39 (cervix, adherent)
AUC: 0.663 | IC50: 5.78 µM

EVSA-T (breast, adherent)
AUC: 0.939 | IC50: > 32 µM

UACC-812 (breast, adherent)
AUC: 0.895 | IC50: > 32 µM

NCI-H1963 (small cell lung carcinoma, suspension)
AUC: 0.921 | IC50: > 32 µM

DMS-273 (small cell lung carcinoma, adherent)
AUC: 0.637 | IC50: 4.9 µM

BV-173 (chronic myeloid leukaemia, suspension)
AUC: 0.859 | IC50: 21.7 µM

KYSE-180 (oesophagus, adherent)
AUC: 0.72 | IC50: 8.1 µM

KARPAS-45 (lymphoblastic leukaemia, suspension)
AUC: 0.827 | IC50: 15.4 µM

RERF-GC-1B (stomach, adherent)
AUC: 0.817 | IC50: 20.7 µM

JHU-011 (head and neck, adherent)
AUC: 0.777 | IC50: 12.6 µM

CHSA0108 (chondrosarcoma, adherent)
AUC: 0.797 | IC50: 17.8 µM

KP-2 (pancreas, adherent)
AUC: 0.7 | IC50: 7.69 µM

CHSA8926 (chondrosarcoma, adherent)
AUC: 0.751 | IC50: 14.6 µM

BC-3 (B-cell lymphoma, suspension)
AUC: 0.951 | IC50: > 32 µM

JHH-7 (liver, adherent)
AUC: 0.633 | IC50: 4.53 µM

HSC-4 (head and neck, adherent)
AUC: 0.755 | IC50: 14.2 µM

SNU-423 (liver, adherent)
AUC: 0.772 | IC50: 14.4 µM

HCE-4 (oesophagus, adherent)
AUC: 0.758 | IC50: 9.67 µM

NCI-H727 (lung carcinoid, adherent)
AUC: 0.665

Raji (Burkitt lymphoma, suspension)
AUC: 0.741 | IC50: 9.25 µM

OCI-AML5 (acute myeloid leukaemia, suspension)
AUC: 0.97 | IC50: > 32 µM

NCI-H1435 (lung adenocarcinoma, semi-adherent)
AUC: 0.795 | IC50: 13.1 µM

RF-48 (stomach, adherent)
AUC: 0.788 | IC50: 15.9 µM

TK (B-cell lymphoma, suspension)
AUC: 0.694 | IC50: 6.63 µM

SCC-4 (head and neck, adherent)
AUC: 0.793 | IC50: 17.7 µM

CAL-148 (breast, suspension)
AUC: 0.923 | IC50: > 32 µM

T47D (breast, adherent)
AUC: 0.938 | IC50: > 32 µM

BPH-1 (prostate, adherent)
AUC: 0.831 | IC50: 23.4 µM

NCI-H720 (lung carcinoid, suspension)
AUC: 0.991 | IC50: > 32 µM

SNU-398 (liver, adherent)
AUC: 0.722 | IC50: 8.78 µM

BE-13 (lymphoblastic leukaemia, suspension)
AUC: 0.875 | IC50: 27.9 µM

TE-441-T (rhabdomyosarcoma, adherent)
AUC: 0.906 | IC50: > 32 µM

SAT (head and neck, adherent)
AUC: 0.821 | IC50: > 32 µM

CAL-85-1 (breast, adherent)
AUC: 0.718 | IC50: 10 µM

RVH-421 (melanoma, adherent)
AUC: 0.732 | IC50: 11.9 µM

NB-4 (acute myeloid leukaemia, suspension)
AUC: 0.691 | IC50: 6.1 µM

HCC1143 (breast, adherent)
AUC: 0.702 | IC50: 9.4 µM

CTV-1 (acute myeloid leukaemia, suspension)
AUC: 0.735 | IC50: 7.94 µM

VM-CUB-1 (bladder, adherent)
AUC: 0.762 | IC50: 11.1 µM

SU-DHL-16 (B-cell lymphoma, suspension)
AUC: 0.827 | IC50: 12.8 µM

NCI-H647 (non-small cell lung carcinoma, adherent)
AUC: 0.84 | IC50: 23.6 µM

Mo-T (hairy cell leukaemia, suspension)
AUC: 0.957 | IC50: > 32 µM

CAPAN-1 (pancreas, adherent)
AUC: 0.734 | IC50: 10.1 µM

NOMO-1 (acute myeloid leukaemia, suspension)
AUC: 0.752 | IC50: 11.9 µM

T84 (large intestine, adherent)
AUC: 0.767 | IC50: 12.1 µM

DB (B-cell lymphoma, suspension)
AUC: 0.919 | IC50: > 32 µM

JJN-3 (haematopoietic neoplasm, suspension)
AUC: 0.911 | IC50: 31.2 µM

SW872 (soft tissue, adherent)
AUC: 0.779 | IC50: 11.8 µM

SNU-449 (liver, adherent)
AUC: 0.822 | IC50: 21 µM

DMS-53 (small cell lung carcinoma, adherent)
AUC: 0.82 | IC50: 20.2 µM

NCI-H28 (mesothelioma, adherent)
AUC: 0.833 | IC50: 30.5 µM

GP5d (large intestine, adherent)
AUC: 0.735

NB13 (neuroblastoma, adherent)
AUC: 0.807 | IC50: 14.2 µM

CP66-MEL (melanoma, adherent)
AUC: 0.62

Saos-2 (osteosarcoma, adherent)
AUC: 0.626 | IC50: 5.15 µM

HPAF-II (pancreas, adherent)
AUC: 0.79 | IC50: 19.4 µM

ALL-SIL (T-cell leukaemia, suspension)
AUC: 0.619 | IC50: 4.05 µM

22RV1 (prostate, adherent)
AUC: 0.807 | IC50: 21.4 µM

HT-1376 (bladder, adherent)
AUC: 0.687 | IC50: 7.39 µM

OV-90 (ovary, adherent)
AUC: 0.591 | IC50: 3.81 µM

SU8686 (pancreas, adherent)
AUC: 0.826 | IC50: 22.7 µM

ROS-50 (B-cell leukaemia, suspension)
AUC: 0.952 | IC50: > 32 µM

CAL-78 (chondrosarcoma, adherent)
AUC: 0.966 | IC50: > 32 µM

RPMI-2650 (head and neck, adherent)
AUC: 0.708 | IC50: 8.16 µM

HCC1599 (breast, suspension)
AUC: 0.721 | IC50: 9.36 µM

NCI-H2023 (lung adenocarcinoma, adherent)
AUC: 0.847 | IC50: > 32 µM

A673 (rhabdomyosarcoma, adherent)
AUC: 0.793 | IC50: 13 µM

RERF-LC-Sq1 (lung squamous cell carcinoma, adherent)
AUC: 0.845 | IC50: > 32 µM

AMO-1 (haematopoietic neoplasm, suspension)
AUC: 0.891 | IC50: 27.9 µM

NCI-H810 (large cell lung carcinoma, adherent)
AUC: 0.724 | IC50: 8.38 µM

RKO (large intestine, adherent)
AUC: 0.608 | IC50: 3.86 µM

COLO-679 (melanoma, adherent)
AUC: 0.598 | IC50: 3.84 µM

SUP-HD1 (Hodgkin lymphoma, suspension)
AUC: 0.952 | IC50: > 32 µM

KMRC-1 (kidney, adherent)
AUC: 0.832 | IC50: 22.2 µM

MZ2-MEL (melanoma, adherent)
AUC: 0.686 | IC50: 7.34 µM

NTERA-2 cl.D1 (testis, adherent)
AUC: 0.396 | IC50: 1.04 µM

OE21 (oesophagus, adherent)
AUC: 0.631 | IC50: 5.27 µM

H2869 (mesothelioma, adherent)
AUC: 0.888 | IC50: > 32 µM

LU-99A (large cell lung carcinoma, adherent)
AUC: 0.808 | IC50: 16.4 µM

SW626 (ovary, adherent)
AUC: 0.736 | IC50: 10.9 µM

EFM-19 (breast, adherent)
AUC: 0.645 | IC50: 6.22 µM

A3-KAW (B-cell lymphoma, suspension)
AUC: 0.726 | IC50: 7.45 µM

SCH (stomach, adherent)
AUC: 0.837 | IC50: 23.9 µM

LNZTA3WT4 (glioma, adherent)
AUC: 0.759 | IC50: 11 µM

H3255 (lung adenocarcinoma, adherent)
AUC: 0.827 | IC50: 24.9 µM

SCC-3 (B-cell lymphoma, suspension)
AUC: 0.889 | IC50: 19.1 µM
